The record followed here is PubChem BioAssay AID463173 (ICCB-Longwood Screening Facility, Harvard Medical School, 2010).

SMILES strings stand for the structures. Screen size: about 52,000 compounds; about 1,700 (3.3%) were called active. No stated cut-off is given here; in the data, active means survival mostly below about 52% (no sharp cut-off); inactive means mostly above about 56%. Some of the results follow.

This experiment deals with Wild type. Put plainly: S. aureus survival, RN4220 and DeltatarO strains – OD600, teichoic acid synthesis inhibitors, primary screen (AID 463173). Particulars: S. aureus RN4220 wild type/DeltatarO growth, OD600, 18 h, stronger effect = lower value, screened at 18.75 µg/mL (by protocol).
For `COC(=O)c1sccc1S(=O)(=O)N(CC(=O)Nc1c(C)cccc1C)c1ccc(C)c(C)c1`, the survival was inactive: 78%.

Take `COc1ccc2c(c1)c(=O)c(S(=O)(=O)c1ccc(C)cc1)cn2Cc1ccccc1C`: the survival was inactive: 92%.

Regarding `Cc1c(Cl)cccc1NC(=O)Nc1nnc(N(C)Cc2ccccc2)s1`, the survival is inactive: 93%.

Take `c1ccc(C(c2ccccc2)N2CCN(Cc3nnnn3Cc3ccc4c(c3)OCO4)CC2)cc1`: the survival is inactive: 105%.

Regarding `CC(=O)c1ccc(NC(=O)Cn2cc(S(=O)(=O)Cc3ccccc3Cl)c3ccccc32)cc1`, the survival is inactive: 83%.

Take `Cc1c(NC(=O)C(C)(C)Oc2ccc(Cl)cc2)cccc1-c1nc2ncccc2o1`: the survival was active: -3%.

`CC1=C(C(=O)NCc2ccccc2C)C2(CCCCC2)OC1=O`: the survival is inactive: 88%.

Consider `Cn1c(=O)c2c(nc(Oc3ccccc3)n2Cc2c(Cl)cccc2Cl)n(C)c1=O`, for which the survival is inactive: 73%.

Consider `O=C(COc1ccccc1[N+](=O)[O-])Nc1cccc(-c2nc3ccccc3s2)c1`, for which the survival was inactive: 82%.

As to `COc1ccc(N(CC(=O)Nc2cc(C)ccc2C)S(=O)(=O)c2ccc(OC)c(OC)c2)cc1`, the survival is inactive: 147%.

Turning to `O=C(N/N=C/c1ccncc1)c1ccccc1`, the survival is inactive: 115%.

For `CCN(CC)c1nc(C(F)(F)F)nc2c1nnn2Cc1ccccc1`, the survival is inactive: 100%.

On to `CC(C)=NNC(=O)CNc1ccccc1Cl`, for which the survival was inactive: 102%.

Take `COCCCNC(=O)CSc1nc2cc3c(cc2c(=O)n1CCCC(=O)NCc1ccc(OC)cc1)OCO3`: the survival is inactive: 70%.

As for `O=C(Nc1ccc(F)cc1F)c1ccc2c(O)c(S(=O)(=O)c3ccc(Cl)cc3)c(=O)[nH]c2c1`, the survival is inactive: 88%.

For `CCOc1ccc(NC(=O)CN2C(=O)COc3ccc(S(=O)(=O)NC4CCCC4)cc32)cc1`, the survival is inactive: 72%.

For `C(#Cc1ccccc1)CN1CCCCC1`, the survival is inactive: 94%.

On to `CCc1ccc(C2c3c(oc4ccc(F)cc4c3=O)C(=O)N2c2nc(C)c(C(=O)OC)s2)cc1` (stereo not given), for which the survival was inactive: 70%.

Turning to `O=C(/C=N/O)NCCN1CCCCC1`, the survival was inactive: 109%.

Take `O=C(COCc1cc(-c2ccc3c(c2)OCO3)on1)NCc1ccccc1Cl`: the survival is inactive: 79%.

As to `CCOc1ccc(C(=O)Nc2ccc(S(=O)(=O)Nc3nc(C)cc(C)n3)cc2)cc1OC`, the survival was inactive: 95%.

In the case of `COc1ccccc1OCC(=O)NCc1nc(-c2ccc(Cl)cc2)no1`, the survival was inactive: 84%.

For the compound `CC1=C(c2ccc(C)c(C)c2)S(=O)(=O)N(Cc2ccc(C(=O)NC(C)c3ccccc3)cc2)C1=O` (stereo not given), the survival was inactive: 70%.

Turning to `Cc1ccccc1Cc1c(C)nc2nc(SCC(=O)NCCc3ccc(Cl)cc3)nn2c1C`, the survival was inactive: 68%.

As to `O=C(COc1ccccc1)Nc1ccccc1OCc1cc(=O)n2ccccc2n1`, the survival is inactive: 77%.

Regarding `CCCCCCOc1ccc(C2C(=O)N(C3CCCCC3)CC(=O)N2CCCC)cc1` (stereo not given), the survival is inactive: 101%.

As to `CCOc1cccc(C(=O)Nc2cc(-c3ccc(C)cc3)no2)c1`, the survival was inactive: 92%.

Take `O=C(CN1C(=O)CCc2cc(S(=O)(=O)N3CCOCC3)ccc21)Nc1cccc(C(F)(F)F)c1`: the survival is inactive: 84%.

With `Cc1ccc2c(=O)cc(C(=O)Nc3sc4c(c3C(=O)NCc3ccccc3)CCCC4)oc2c1C`, the survival is inactive: 87%.

As to `CCCn1c(N2CCN(C(=O)N3CCCCC3)CC2)nc2ccccc21`, the survival is inactive: 116%.

Regarding `Cc1noc(Cn2c(=O)c3cc4c(cc3n(CC(=O)Nc3ccccc3Br)c2=O)OCO4)n1`, the survival is inactive: 127%.

As to `O=C(Nc1sc2c(c1C(=O)N1CCCCC1)CCCC2)c1ccccc1Cl`, the survival is inactive: 75%.

In the case of `COc1ccc(NC(=O)CNC(=O)Cn2c(C)cc3ccccc3c2=O)cc1OC`, the survival was inactive: 78%.

Turning to `CN(C)c1ccc(CNC(=O)CCS(=O)(=O)c2ccc3c(c2)oc(=O)n3C)cc1`, the survival was inactive: 105%.

As to `CCCCN1C(C(=O)c2ccccc2)=C(OC(C)=O)c2ccccc2S1(=O)=O`, the survival is active: -2%.

For `CCCCN(CCCC)C1=C(C(=O)c2ccccc2)N(C)S(=O)(=O)c2ccccc21`, the survival was inactive: 70%.

Turning to `COC(=O)c1cc2c(cc1N)OCCO2`, the survival was inactive: 96%.

With `C=Cc1ccc(C=C)cc1`, the survival was inactive: 133%.

On to `CCCS(=O)(=O)N1CCCC(C(=O)NCCOC)C1` (stereo not given), for which the survival is inactive: 66%.

Regarding `Cc1cc(=O)n2nc(N3CCC(C(=O)NCc4ccc(F)cc4)CC3)sc2n1`, the survival was inactive: 100%.

As to `CCOc1ccc(NCc2cccn2-c2nnc(N3CCC(C(=O)NCCOC)CC3)s2)cc1`, the survival is inactive: 84%.

`C=C(C)Cn1c(=O)c2c(nc3n2CCN3c2ccc(F)cc2)n(C)c1=O`: the survival is inactive: 85%.

Take `Cc1ccccc1Nc1cc(C(=O)NCc2cccs2)c2ccccc2n1`: the survival is inactive: 95%.

Regarding `COc1ccccc1/C=C/c1nc(C#N)c(NCCc2ccccc2)o1`, the survival is inactive: 71%.

Turning to `CCOc1ccc(-c2nc(Cn3ccn4nc(-c5ccc(OCC)c(Cl)c5)cc4c3=O)c(C)o2)cc1`, the survival is inactive: 92%.

With `CCOc1ccc(N(CC)S(=O)(=O)N2CCCC(C(=O)Nc3cc(Cl)ccc3OC)C2)cc1` (stereo not given), the survival was inactive: 81%.

In the case of `COc1ccc(CNS(=O)(=O)c2ccc(-c3cnc(C4CC4)o3)cc2)cc1`, the survival was inactive: 92%.

For the compound `COc1ccc(C)cc1N(C)C(=O)c1c2c(nc3ccccc13)C(=O)N(C1CCCCC1)C2`, the survival was inactive: 79%.

In the case of `CC(C)N(Cc1ccccc1)S(=O)(=O)c1ccc(F)cc1`, the survival is inactive: 113%.

As for `COc1ccc(Nc2ncc(C(=O)N3CCN(c4ccc(F)cc4)CC3)c3ccccc23)cc1`, the survival is inactive: 76%.

In the case of `COc1ccc(-c2nc3scc(CCNS(=O)(=O)c4ccc(NC(C)=O)cc4)n3n2)cc1`, the survival was inactive: 63%.

Regarding `O=S(=O)(NC1CC1)c1ccc(S(=O)(=O)N(Cc2ccccn2)C2CC2)cc1`, the survival is inactive: 104%.

Consider `COc1cc2nc(SCC(=O)Nc3ccccc3F)n3nc(-c4ccccc4)nc3c2cc1OC`, for which the survival is inactive: 71%.

Regarding `CCOC(=O)c1ccc(NC2SC(=O)N(Cc3cccc(C(=O)O)c3)C2=O)cc1` (stereo not given), the survival is inactive: 66%.

On to `CCc1ccc(NC(=O)CSc2nc3c(sc4ccccc43)c(=O)n2CCCOC(C)C)cc1`, for which the survival is inactive: 80%.

`CCOc1ccc(Cn2c(CNS(=O)(=O)c3cccc(Cl)c3)nc3cccnc32)cc1`: the survival is inactive: 75%.

In the case of `COc1ccc(-c2nc3ccc(NS(=O)(=O)c4ccc(Cl)cc4)cc3o2)cc1`, the survival is inactive: 23%.

On to `Cc1ccc(CNC(=O)c2ccc(CSCc3ccccc3C)o2)cc1`, for which the survival is inactive: 82%.

`Cc1ccc(NCc2nnc(SCc3nc4ccccc4c(=O)[nH]3)n2Cc2ccco2)c(C)c1`: the survival is inactive: 104%.

Regarding `COc1ccccc1C(=O)N1CCN(Cc2cc(=O)oc3cc(C)ccc23)CC1`, the survival is inactive: 74%.

For the compound `CCCCN(CC)C(=O)Cn1ncc2c3ccccc3n(CCC)c2c1=O`, the survival was inactive: 98%.

As to `COc1ccc(-n2cc(C(=O)NCc3ccccc3Cl)c3ccccc3c2=O)cc1`, the survival was inactive: 113%.

As to `CCCc1cc(-c2ccc(O)c(OCC)c2)c(C#N)c(N)n1`, the survival is inactive: 105%.

Take `COc1ccccc1NC(=O)CSC1=Nc2ccccc2C2=NC(CCC(=O)NCc3cccs3)C(=O)N12` (stereo not given): the survival is inactive: 71%.

Turning to `CCCNC(=O)Cn1nc(-c2ccc(F)cc2)c2cnc3ccc(F)cc3c21`, the survival is inactive: 82%.

Consider `CCOc1cccc(C(=O)N(Cc2ccc(CC)cc2)C2CCS(=O)(=O)C2)c1` (stereo not given), for which the survival is inactive: 141%.

On to `Cn1c(=O)[nH]c2cc(-c3noc(-c4cccc(Cl)c4)n3)ccc21`, for which the survival is inactive: 76%.

Regarding `CCC(C)NC(=O)c1cccc(NC(=O)c2nsc3ccccc23)c1` (stereo not given), the survival is inactive: 76%.

For `CC(C)(C)c1ccc(Cn2c(=N)n(CC(O)c3ccco3)c3ccccc32)cc1` (stereo not given), the survival is active: 53%.

As for `Cc1ccc(Cl)cc1N(C)C(=O)c1cn(C2CCCCC2)c(=O)c2c1c1ccccc1n2C`, the survival was inactive: 90%.

As for `CC(=O)C1=C(c2ccc(Cl)cc2)N(C(C)=O)n2c(nnc2C2CCCCC2)S1`, the survival was inactive: 85%.

As for `O=C(O)C1CC(=O)N(CCCN2CCOCC2)C1` (stereo not given), the survival was inactive: 113%.

With `CCN(Cc1ccccc1)S(=O)(=O)c1ccc2c(c1)CC(C)N2C(=O)C1CCC1` (stereo not given), the survival was inactive: 74%.

`Cc1ccc(N(CC(=O)Nc2cccc(Cl)c2)S(=O)(=O)c2cccs2)cc1`: the survival was inactive: 123%.

Regarding `Cc1ccc2c(c1)N(CCC(=O)NCc1ccccc1Cl)C(=O)CO2`, the survival is inactive: 75%.

As for `O=c1c2oc3ccccc3c2n(Cc2ccccc2F)c(=O)n1Cc1ccccc1`, the survival was inactive: 91%.

Consider `Cc1ccc2onc(CC(=O)Nc3ccc(C(C)C)cc3)c2c1`, for which the survival was inactive: 85%.

Consider `O=C(Nc1ccc2c(c1)oc1ccccc12)C1CC1`, for which the survival was inactive: 109%.

With `COc1cccc(CNC(=O)c2cc3c(=O)oc4ccc(C)cc4c3s2)c1`, the survival is inactive: 89%.

Take `CC(=O)N1CCC(N(Cc2ccc(C)o2)C(=O)Nc2ccc(C)cc2)CC1`: the survival is inactive: 70%.

Turning to `COc1ccc(-c2nnc(SCc3cccc(Cl)c3)o2)cc1`, the survival was active: 13%.

As to `Cn1c(=O)[nH]c(=O)c2c1nc(NCCc1ccccc1)n2Cc1ccc(F)cc1`, the survival is inactive: 76%.

On to `COc1ccc(NC(=O)c2c(NC(=O)c3ccc(Br)cc3)sc3c2CCCC3)cc1`, for which the survival was inactive: 157%.

As to `CCOc1ccc(OCC)c(NS(=O)(=O)c2ccc(-c3coc(C)n3)cc2)c1`, the survival was inactive: 80%.

For `Cn1cc(S(=O)(=O)N2CCOCC2)cc1C(=O)Nc1ccc(Cl)c(C(F)(F)F)c1`, the survival is inactive: 59%.

For the compound `Cc1cc(NC(=O)Nc2nnc(N(C)Cc3ccccc3)s2)ccc1Br`, the survival was inactive: 95%.

With `Cc1ccc(O)c(NC(=O)c2cc(-c3ccccc3O)no2)c1`, the survival was inactive: 91%.

On to `COc1cc(NC(=O)c2cn(C3CCCC3)c(=O)c3c2c2ccccc2n3C)cc(OC)c1OC`, for which the survival is inactive: 80%.

Regarding `Cn1cnc2c(=O)oc3ccc(S(=O)(=O)Nc4ccc(F)cc4)cc3c21`, the survival is inactive: 72%.

`CCOc1ccc2nc(NC(=O)c3nc(SC)ncc3Cl)sc2c1`: the survival was inactive: 88%.
